Inhibition data for 25 molecules are collected here from ChEMBL document CHEMBL5606460, “ASAP - DENV-2 NS2B-NS3 protease fluorescence single point” (2024).

What is called inhibition is the relative decrease from the control value, in per cent.

The target of this assay is Genome polyprotein (dengue virus type 2) (UniProt P29990).
[1] abbreviates: Thailand/16681/1984, Concentration 25.0 uM, Number of replicates 1.0.

Hit rate of the full screen: of about 2,000 compounds, about 110 (5.5%) showed an effect of 50% or more. This is one part of the list.

As to `Nc1ccnc2c(OC(F)(F)F)cccc12`, the inhibition reads like this: (Thailand/16681/1984, Concentration 49.95 uM, Number of replicates 2.0, Standard deviation 5.899788515721779 %) -6.29%; (Thailand/16681/1984, Concentration 99.9 uM, Number of replicates 2.0, Standard deviation 6.266674134610807 %) -5.78%.

`O=Cc1ccc(N2CCC(C(=O)N[C@H]3CCc4ccccc4NC3=O)CC2)cc1`: the inhibition under setting [1] worked out at 15.2%.

As to `COc1cc(COc2ccccc2CO)nc(N2CCNCC2)n1`, the inhibition is 3.51% (Thailand/16681/1984, Concentration 49.5 uM, Number of replicates 2.0, Standard deviation 20.33636893523299 %); -7.68% (Thailand/16681/1984, Concentration 99.01 uM, Number of replicates 2.0, Standard deviation 0.5398033487360073 %); -5.09% (Thailand/16681/1984, Concentration 198.0 uM, Number of replicates 2.0, Standard deviation 3.401504567444578 %).

Consider `c1ccc2c(CN3CCC(c4c[nH]c5cccnc45)CC3)n[nH]c2c1`, for which the inhibition was 2.18% (Thailand/16681/1984, Concentration 49.5 uM, Number of replicates 2.0, Standard deviation 0.8795107409501791 %); 3.05% (Thailand/16681/1984, Concentration 99.01 uM, Number of replicates 2.0, Standard deviation 0.8626664157680123 %); 5.34% (Thailand/16681/1984, Concentration 198.0 uM, Number of replicates 2.0, Standard deviation 1.2603111418750788 %).

In the case of `O=Cc1ccc(N2CCC(C(=O)N3CCN(Cc4cccc5ccccc45)CC3)CC2)cc1`, under setting [1], the inhibition was determined as 10.2%.

For the molecule `CCN1CCOC[C@H]1C(=O)Nc1cc(Cl)cc(C(=O)NC(C)(C)CO)c1`, the inhibition (Thailand/16681/1984, Concentration 49.5 uM, Number of replicates 2.0, Standard deviation 0.6499972535452555 %) was -1.27%; the inhibition (Thailand/16681/1984, Concentration 99.01 uM, Number of replicates 2.0, Standard deviation 0.004226991730854585 %) was -2.97%; the inhibition (Thailand/16681/1984, Concentration 198.0 uM, Number of replicates 2.0, Standard deviation 1.831169890174156 %) is -0.762%.

In the case of `CN1CCN(C(=O)C2CCN(C(=O)C3CCN(c4ccc(C=O)cc4)CC3)CC2)CC1`, the inhibition under setting [1] is 10.4%.

On to `O=C(N[C@@H](Cc1ncc[nH]1)c1ccccc1)c1ccc2c(c1)B(O)OC2`, for which the inhibition runs as follows: (Thailand/16681/1984, Concentration 49.5 uM, Number of replicates 2.0, Standard deviation 1.0122637885717318 %) -5.27%; (Thailand/16681/1984, Concentration 99.01 uM, Number of replicates 2.0, Standard deviation 7.4966370167471315 %) -1.36%; (Thailand/16681/1984, Concentration 198.0 uM, Number of replicates 2.0, Standard deviation 3.0828684078497304 %) -3.8%.

As to `O=Cc1ccc(N2CCC(C(=O)N3CCN(c4cccc5sccc45)CC3)CC2)cc1`, the inhibition under setting [1] is 9.91%.

On to `CNC(=O)c1cc(Cl)cc(OC)c1NS(=O)(=O)c1ccc(Oc2ccccc2Cl)cc1`, for which the inhibition is 1.45% (Thailand/16681/1984, Concentration 49.5 uM, Number of replicates 2.0, Standard deviation 0.8103097460864452 %); 1.53% (Thailand/16681/1984, Concentration 99.01 uM, Number of replicates 2.0, Standard deviation 1.6946405270728757 %); -0.559% (Thailand/16681/1984, Concentration 198.0 uM, Number of replicates 2.0, Standard deviation 1.1024722794831296 %).

Consider `COc1cc(CC(=O)N2CCN(C(C)=O)CC2)nc(N2CCNCC2)n1`, for which the inhibition by setting is: (Thailand/16681/1984, Concentration 49.5 uM, Number of replicates 2.0, Standard deviation 1.979205385065759 %) -3.64%; (Thailand/16681/1984, Concentration 99.01 uM, Number of replicates 2.0, Standard deviation 1.6826594845935323 %) -3.2%; (Thailand/16681/1984, Concentration 198.0 uM, Number of replicates 2.0, Standard deviation 2.319277010344762 %) -4.32%.

For the molecule `CN(Cc1ccc(Cl)c(Cl)c1)C(=O)C1CCN(c2ccc(C=O)cc2)CC1`, the inhibition under setting [1] was found to be 9.81%.

Consider `CNC(=O)c1cn(S(=O)(=O)c2ccc(Oc3ccccc3Cl)cc2)c2ccc(Cl)cc12`, for which the inhibition reads like this: (Thailand/16681/1984, Concentration 49.5 uM, Number of replicates 2.0, Standard deviation 1.1380993582408887 %) 0.625%; (Thailand/16681/1984, Concentration 99.01 uM, Number of replicates 2.0, Standard deviation 1.0406365412270837 %) 4.48%; (Thailand/16681/1984, Concentration 198.0 uM, Number of replicates 2.0, Standard deviation 0.5161930213749926 %) 12.8%.

Turning to `Cc1ccc(Cl)c(CNC(=O)C2CCN(c3ccc(C=O)cc3)CC2)c1`, the inhibition under setting [1] was found to be 11.9%.

Turning to `c1cncc(CN2CCC(c3c[nH]c4cccnc34)CC2)c1`, the inhibition (Thailand/16681/1984, Concentration 49.5 uM, Number of replicates 2.0, Standard deviation 0.0717489720537479 %) is -0.221%; the inhibition (Thailand/16681/1984, Concentration 99.01 uM, Number of replicates 2.0, Standard deviation 0.5591472085741809 %) came out at 0.281%; the inhibition (Thailand/16681/1984, Concentration 198.0 uM, Number of replicates 2.0, Standard deviation 0.5232727014738827 %) is -0.08%.

For the molecule `CCCCCC(=O)N[C@H](C(=O)Nc1cccc(C(N)=O)c1)c1ccc(OCc2ccccc2)cc1`, the inhibition (Thailand/16681/1984, Concentration 49.5 uM, Number of replicates 2.0, Standard deviation 0.8710225342474791 %) amounted to 1.48%; the inhibition (Thailand/16681/1984, Concentration 99.01 uM, Number of replicates 2.0, Standard deviation 1.9032952704635988 %) is 1.26%; the inhibition (Thailand/16681/1984, Concentration 198.0 uM, Number of replicates 2.0, Standard deviation 1.599366016580605 %) was 3.23%.

`CC(C)(CO)CN1CC[C@H](c2c[nH]c3ccccc23)C1`: the inhibition is -5.3% (Thailand/16681/1984, Concentration 49.5 uM, Number of replicates 2.0, Standard deviation 0.011344920094768412 %); -4.13% (Thailand/16681/1984, Concentration 99.01 uM, Number of replicates 2.0, Standard deviation 0.1670795483912504 %); -2.75% (Thailand/16681/1984, Concentration 198.0 uM, Number of replicates 2.0, Standard deviation 0.08457102328498975 %).

For `Cc1ccc2cccc(NC(=O)C3CCN(c4ccc(C=O)cc4)CC3)c2n1`, the inhibition under setting [1] came to 50.9%.

For `CNC(=O)c1cc(Cl)ccc1NS(=O)(=O)c1ccc(OC)cc1`, the inhibition (Thailand/16681/1984, Concentration 49.5 uM, Number of replicates 2.0, Standard deviation 1.598704816821166 %) was -9.51%.

Turning to `COc1ccccc1C1CCN(C(=O)C2CCN(c3ccc(C=O)cc3)CC2)CC1`, the inhibition under setting [1] was 12.3%.

As for `Cc1ccc([C@H](CCO)NC(=O)C2CCN(c3ccc(C=O)cc3)CC2)cc1`, the inhibition under setting [1] stood at 11.9%.

Turning to `O=Cc1ccc(N2CCC(C(=O)Nc3cc(Cl)cc([N+](=O)[O-])c3O)CC2)cc1`, under setting [1], the inhibition stood at 90.5%.

Turning to `CN1CCN(CCCNC(=O)C2CCN(c3ccc(C=O)cc3)CC2)CC1`, the inhibition under setting [1] came to 6.58%.

Regarding `O=Cc1ccc(N2CCC(C(=O)N3CCN(c4nsc5ccccc45)CC3)CC2)cc1`, under setting [1], the inhibition is 9.15%.

Regarding `CS(=O)(=O)C1(CNC(=O)[C@]2(c3ccc(F)cc3)CCCNC2)CC1`, the inhibition is -2.19% (Thailand/16681/1984, Concentration 49.5 uM, Number of replicates 2.0, Standard deviation 0.4494983310048074 %); -1.57% (Thailand/16681/1984, Concentration 99.01 uM, Number of replicates 2.0, Standard deviation 1.364622990359298 %); -0.527% (Thailand/16681/1984, Concentration 198.0 uM, Number of replicates 2.0, Standard deviation 0.44585663255922364 %).
